# Test results taken from the supplement of paper PMC8728848.
# The list shows a part of the results.
# Columns and labels:
# Experiment in all cases: glycan array binding signal (z-score within array); higher = stronger binding
# Conditions in all cases: glycan notation: IUPAC condensed, linker removed
# [1] = target: Fuc(a1-2)[GalNAc(a1-3)]Gal(b1-3)GlcNAc(b1-6)GalNAc
# Method in brief: (§1)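 Negative Z-scores can be read as non-binding. The Z-score is calculated within each array and then averaged across arrays of one protein sequence at different concentrations or buffers and across linkers. Arrays, 3228 in all, were curated from the Consortium for Functional Glycomics database and kept only where the protein sequence was available.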
# [2] = target: Fuc(a1-2)[GalNAc(a1-3)]Gal(b1-4)Glc
# Method in brief: as §1
# [3] = target: Fuc(a1-2)[GalNAc(a1-3)]Gal(b1-4)GlcNAc
# Method in brief: as §1
# [4] = target: Fuc(a1-2)[GalNAc(a1-3)]Gal(b1-4)GlcNAc(b1-2)Man
# Method in brief: as §1
# [5] = target: Fuc(a1-2)[GalNAc(a1-3)]Gal(b1-4)GlcNAc(b1-2)Man(a1-3)[Fuc(a1-2)[GalNAc(a1-3)]Gal(b1-4)GlcNAc(b1-2)Man(a1-6)]Man(b1-4)GlcNAc(b1-4)GlcNAc
# Method in brief: as §1
# [6] = target: Fuc(a1-2)[GalNAc(a1-3)]Gal(b1-4)GlcNAc(b1-2)Man(a1-3)[Fuc(a1-2)[GalNAc(a1-3)]Gal(b1-4)GlcNAc(b1-2)Man(a1-6)]Man(b1-4)GlcNAc(b1-4)[Fuc(a1-6)]GlcNAc
# Method in brief: as §1
# [7] = target: Fuc(a1-2)[GalNAc(a1-3)]Gal(b1-4)GlcNAc(b1-3)Gal(b1-4)GlcNAc
# Method in brief: as §1
# [8] = target: Fuc(a1-2)[GalNAc(a1-3)]Gal(b1-4)GlcNAc(b1-3)Gal(b1-4)GlcNAc(b1-3)Gal(b1-4)GlcNAc
# Method in brief: as §1
# [9] = target: Fuc(a1-2)[GalNAc(a1-3)]Gal(b1-4)GlcNAc(b1-3)GalNAc
# Method in brief: as §1
# [10] = target: Fuc(a1-2)[GalNAc(a1-3)]Gal(b1-4)GlcNAc(b1-3)[Fuc(a1-2)[GalNAc(a1-3)]Gal(b1-4)GlcNAc(b1-6)]GalNAc
# Method in brief: as §1
# [11] = target: Fuc(a1-2)[GalNAc(a1-3)]Gal(b1-4)GlcNAc(b1-6)GalNAc
# Method in brief: as §1
# [12] = target: Fuc(a1-2)[GalNAc(a1-3)]Gal(b1-4)[Fuc(a1-3)]GlcNAc
# Method in brief: as §1
# [13] = target: Fuc(a1-2)[GalNAc(a1-3)]Gal(b1-4)[Fuc(a1-3)]GlcNAc(b1-3)GalNAc
# Method in brief: as §1
# [14] = target: Fuc(a1-2)[GalNAc(a1-4)]Gal(b1-4)GlcNAc
# Method in brief: as §1
# [15] = target: Fuc(a1-2)[GalNAc(b1-3)]Gal
# Method in brief: as §1
# Fuc(a1-3)GlcNAc = target: Fuc(a1-3)GlcNAc
# Method in brief: as §1
# [16] = target: Fuc(a1-3)[Gal(b1-4)]Glc6S
# Method in brief: as §1
# [17] = target: Fuc(a1-3)[Gal(b1-4)]GlcNAc
# Method in brief: as §1
# [18] = target: Fuc(a1-3)[Gal(b1-4)]GlcNAc(b1-2)Man
# Method in brief: as §1
# [19] = target: Fuc(a1-3)[Gal(b1-4)]GlcNAc(b1-2)Man(a1-3)[Fuc(a1-3)[Gal(b1-4)]GlcNAc(b1-2)Man(a1-6)]Man(b1-4)GlcNAc(b1-4)GlcNAc
# Method in brief: as §1
# [20] = target: Fuc(a1-3)[Gal(b1-4)]GlcNAc(b1-2)Man(a1-3)[Fuc(a1-3)[Gal(b1-4)]GlcNAc(b1-2)Man(a1-6)]Man(b1-4)GlcNAc(b1-4)[Fuc(a1-6)]GlcNAc
# Method in brief: as §1
# [21] = target: Fuc(a1-3)[Gal(b1-4)]GlcNAc(b1-3)Gal(b1-3)[Fuc(a1-4)]GlcNAc
# Method in brief: as §1
# [22] = target: Fuc(a1-3)[Gal(b1-4)]GlcNAc(b1-3)GalNAc
# Method in brief: as §1
# [23] = target: Fuc(a1-3)[Gal(b1-4)]GlcNAc(b1-4)Gal(b1-4)[Fuc(a1-3)]GlcNAc
# Method in brief: as §1
# [24] = target: Fuc(a1-3)[Gal(b1-4)]GlcNAc(b1-4)Gal(b1-4)[Fuc(a1-3)]GlcNAc(b1-4)Gal(b1-4)[Fuc(a1-3)]GlcNAc
# Method in brief: as §1
# [25] = target: Fuc(a1-3)[Gal(b1-4)]GlcNAc(b1-6)GalNAc
# Method in brief: as §1
# [26] = target: Fuc(a1-3)[Gal(b1-4)]GlcNAc(b1-6)[Gal(b1-3)GlcNAc(b1-3)]Gal(b1-4)Glc
# Method in brief: as §1
# [27] = target: Fuc(a1-3)[Gal(b1-4)]GlcNAc6S
# Method in brief: as §1
# [28] = target: Fuc(a1-3)[Gal3S(b1-4)]Glc
# Method in brief: as §1
# [29] = target: Fuc(a1-3)[Gal3S(b1-4)]GlcNAc
# Method in brief: as §1
# [30] = target: Fuc(a1-3)[Gal3S(b1-4)]GlcNAc6S
# Method in brief: as §1
# [31] = target: Fuc(a1-3)[GalNAc(b1-4)]GlcNAc
# Method in brief: as §1
# [32] = target: Fuc(a1-3)[GalNAc(b1-4)]GlcNAc6S
# Method in brief: as §1
# Fuc(a1-4)GlcNAc = target: Fuc(a1-4)GlcNAc
# Method in brief: as §1
# Fuc(b1-3)GlcNAc = target: Fuc(b1-3)GlcNAc
# Method in brief: as §1
# Gal(a1-2)Gal = target: Gal(a1-2)Gal
# Method in brief: as §1
# Gal(a1-3)Gal = target: Gal(a1-3)Gal
# Method in brief: as §1
binder,measurement,setting,value
"CLECb-Precomplexed (Mus musculus), P43025 (protein) MAKNGLVLCILVVSLLLDQTDGYPSRMKARKHSKRRVKAKDDDLKSQVEKLWREVNALKEMQALQTVCLRGTKVHKKCYLASEGLKHYHEANEDCISKGGTLVVPRNSDEINALRDYGKRSLPGVNDFWLGINDMVTEGKFLDVHGFAVSFLNWDRAQPSGGKRENCVLFSQSAQGKWSDEACRSSKRYICEFIIPTRTRPLEQKLISEEDLAANDILDYKDDDDKV",glycan array binding signal (z-score),[1],0.974
same,glycan array binding signal (z-score),[2],-0.431
same,glycan array binding signal (z-score),[3],-0.175
same,glycan array binding signal (z-score),[4],-0.139
same,glycan array binding signal (z-score),[5],-0.336
same,glycan array binding signal (z-score),[6],-0.192
same,glycan array binding signal (z-score),[7],-0.249
same,glycan array binding signal (z-score),[8],0.179
same,glycan array binding signal (z-score),[9],-0.51
same,glycan array binding signal (z-score),[10],-0.35
same,glycan array binding signal (z-score),[11],-0.188
same,glycan array binding signal (z-score),[12],-0.108
same,glycan array binding signal (z-score),[13],0.594
same,glycan array binding signal (z-score),[14],-0.079
same,glycan array binding signal (z-score),[15],-0.291
same,glycan array binding signal (z-score),Fuc(a1-3)GlcNAc,-0.126
same,glycan array binding signal (z-score),[16],0.269
same,glycan array binding signal (z-score),[17],0.129
same,glycan array binding signal (z-score),[18],-0.33
same,glycan array binding signal (z-score),[19],0.382
same,glycan array binding signal (z-score),[20],-0.171
same,glycan array binding signal (z-score),[21],0.205
same,glycan array binding signal (z-score),[22],-0.511
same,glycan array binding signal (z-score),[23],-0.184
same,glycan array binding signal (z-score),[24],-0.459
same,glycan array binding signal (z-score),[25],-0.254
same,glycan array binding signal (z-score),[26],0.092
same,glycan array binding signal (z-score),[27],1.84
same,glycan array binding signal (z-score),[28],0.449
same,glycan array binding signal (z-score),[29],-0.309
same,glycan array binding signal (z-score),[30],-0.231
same,glycan array binding signal (z-score),[31],-0.052
same,glycan array binding signal (z-score),[32],-0.189
same,glycan array binding signal (z-score),Fuc(a1-4)GlcNAc,-0.447
same,glycan array binding signal (z-score),Fuc(b1-3)GlcNAc,0.055
same,glycan array binding signal (z-score),Gal(a1-2)Gal,-0.17
same,glycan array binding signal (z-score),Gal(a1-3)Gal,-0.325
